In all, about 310,000 compounds went through this assay and about 14,000 (4.5%) showed an effect of 50% or more. The effect is printed as a negative number. This is one part of the list.
Target: human ether-à-go-go-related gene (hERG) potassium channel (human, UniProt Q12809)
Assay: primary screen, population patch clamp on CHO cells stably expressing hERG
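Also: peak tail current of the secondary pulse compared with the same well before compound.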

human ether-à-go-go-related gene (hERG) potassium channel, sequence (Q12809 whole entry, looked up): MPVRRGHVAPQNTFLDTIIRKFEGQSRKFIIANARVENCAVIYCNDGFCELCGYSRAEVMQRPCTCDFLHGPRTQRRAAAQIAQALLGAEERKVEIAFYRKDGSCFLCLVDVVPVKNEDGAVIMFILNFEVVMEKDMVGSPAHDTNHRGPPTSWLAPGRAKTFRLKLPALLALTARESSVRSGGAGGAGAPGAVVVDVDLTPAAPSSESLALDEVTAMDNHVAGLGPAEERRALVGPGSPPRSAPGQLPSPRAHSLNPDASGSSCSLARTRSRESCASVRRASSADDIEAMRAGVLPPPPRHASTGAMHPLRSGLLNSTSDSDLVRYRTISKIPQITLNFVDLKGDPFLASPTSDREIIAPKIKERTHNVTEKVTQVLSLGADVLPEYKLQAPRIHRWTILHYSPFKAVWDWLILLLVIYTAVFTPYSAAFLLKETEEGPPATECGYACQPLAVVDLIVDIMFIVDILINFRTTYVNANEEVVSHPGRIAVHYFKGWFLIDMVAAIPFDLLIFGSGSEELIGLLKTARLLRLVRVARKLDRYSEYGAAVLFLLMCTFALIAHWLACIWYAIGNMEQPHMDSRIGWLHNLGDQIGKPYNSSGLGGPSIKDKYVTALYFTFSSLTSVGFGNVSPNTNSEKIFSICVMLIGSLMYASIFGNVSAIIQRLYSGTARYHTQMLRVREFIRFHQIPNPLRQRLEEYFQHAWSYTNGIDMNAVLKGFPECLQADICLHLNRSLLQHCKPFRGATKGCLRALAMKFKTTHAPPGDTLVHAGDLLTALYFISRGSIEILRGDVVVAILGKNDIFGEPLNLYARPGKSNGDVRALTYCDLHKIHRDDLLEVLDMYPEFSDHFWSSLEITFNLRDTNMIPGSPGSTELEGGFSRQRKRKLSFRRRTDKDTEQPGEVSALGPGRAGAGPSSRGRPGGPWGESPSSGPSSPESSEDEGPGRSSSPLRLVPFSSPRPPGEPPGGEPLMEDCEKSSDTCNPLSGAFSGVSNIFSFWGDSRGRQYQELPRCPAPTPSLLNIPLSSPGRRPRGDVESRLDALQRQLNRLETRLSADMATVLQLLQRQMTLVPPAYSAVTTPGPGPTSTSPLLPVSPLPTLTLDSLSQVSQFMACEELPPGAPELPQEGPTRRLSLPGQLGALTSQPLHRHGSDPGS

SMILES	hERG current change (%, negative = inhibition) at 10uM
COc1ccc(N(C(=O)c2ccco2)S(=O)(=O)c2cc(OC)ccc2OC)cc1	-19.3%
COc1ccc(-n2c(O)c(/C=N/NS(=O)(=O)c3ccc(C)cc3)c3ccccc3c2=O)cc1OC	-8.65%
NC(=O)C1CCN(CC(=O)NCc2ccccc2)CC1	4.54%
CS(=O)(=O)N1CCCC(C(=O)Nc2ccccc2Cl)C1 (centres unmarked)	38.6%
O=C(CSc1nc2ccccc2c(=O)[nH]1)c1cccs1	8.81%
CN=CC1=C(O)C(C(=O)OC)C(C)(C)CC1=O (centres unmarked)	22.6%
O=C(CCc1nc(-c2ccccc2F)no1)NC1CCN(Cc2ccccc2)CC1	-46.4%
O=C(Nc1ccc(N2CCCC2)cc1)c1cccc(Cl)c1Cl	23.8%
NC(=O)C1CCN(C2CC(=O)N(c3ccc(F)c(Cl)c3)C2=O)CC1 (centres unmarked)	4.25%
Cc1csc(NC(=O)c2cccc(S(=O)(=O)N3CCCCC3)c2)n1	-26.7%
C=CCn1c(SCC(=O)NCc2ccco2)nc2sc(C)c(C)c2c1=O	3.62%
O=C(C1CCCN(Cc2ccccc2[N+](=O)[O-])C1)N1CCCC1.O=C(O)C(=O)O (centres unmarked)	11.4%
Cc1cc(OCC(=O)N(C)c2c(N)n(Cc3ccccc3)c(=O)[nH]c2=O)c(C(C)C)cc1Cl	5.98%
N#CCC(=O)N1CCCCCC1	-13.6%
O=C(Cn1nnc(-c2ccccc2)n1)N=Nc1c(O)[nH]c2ccccc12	22.8%
O=C(Cn1cnc([N+](=O)[O-])n1)c1ccccc1	18.7%
COc1cc(OC)cc(C(=O)Nc2ccc(S(=O)(=O)Nc3nc(C)cc(C)n3)cc2)c1	22.4%
COc1ccccc1C(=O)NNC(=O)c1cccc(F)c1	6.07%
CCOC(=O)Cc1csc(NS(=O)(=O)c2ccc3ccccc3c2)n1	46.9%
COc1ccc(CNC(=O)CCS(=O)(=O)c2cccc3nonc23)cc1	-16.2%
CCOc1ccc(N(C)S(=O)(=O)c2ccc3[nH]cc(C(=O)NCCOC)c(=O)c3c2)cc1	11.3%
Cc1ccc(-c2ccc(CCC(=O)O)n2-c2cccc(O)c2)cc1	12.2%
O=C1OC(c2cccc([N+](=O)[O-])c2)C2(CCCC2)C(=O)C12CCCCC2 (centres unmarked)	-14.3%

SMILES	hERG current change (%, negative = inhibition) at 10uM
COc1ccc(OC)c(/C=N/NC(=O)C(=O)N/N=C/c2cc(OC)ccc2OC)c1	25.4%
Cc1ccc(NC(=O)CSc2nnc(C)n2-c2ccccc2)cc1	-3.7%
O=C(NCc1ccccc1CN1CCCC1)c1cc2ccccc2o1	-69.4%
O=C(Nc1ccc(Cl)cc1)Nc1nc(-c2sccc2Br)cs1	3.97%
Cc1cccc(NS(=O)(=O)c2cnc(Cl)c(Br)c2)n1	-9.33%
CCCOc1ccccc1/C=C(\C#N)C(=O)Nc1cccnc1	-41.1%
COc1ccc(Cc2nc3ccc(C(=O)N(C)Cc4cc(C)[nH]n4)cc3o2)cc1OC	20.8%
C#CCC(NC(=O)c1ccc(C#N)cc1)C(=O)NCCC (centres unmarked)	6.83%
CCOC1C(=O)NC(=O)N1Cc1ccccc1 (centres unmarked)	5.05%
O=C(NCc1ccco1)C1CCN(c2ccc(N3CCOCC3)nn2)CC1	-13%
Cc1nc(-c2ccc(Cl)cc2)sc1C1(C)CC(c2ccccc2F)=NO1 (centres unmarked)	12.5%
CN(C)c1ccc(C(=O)/C=C/c2cccnc2)cc1	-2.5%
O=S(=O)(c1ccc2c(c1)CCN2)N1CCOCC1	-2.2%
CC(C)c1nnc(SCC(=O)Nc2ccc3c(c2)OCO3)n1C	4.79%
COc1ccc(CCNC(=O)c2ccc([N+](=O)[O-])cc2)cc1	-32.6%
O=C(CN1CCN(Cc2ccc(F)cc2)CC1)NCc1ccccc1	-27.5%
CN(C)S(=O)(=O)c1ccc2c(c1)c(=O)c(C(=O)NCCCN1CCCCCC1)cn2C	-4.72%
Cc1ccc(C)n1NC(=O)c1ccccc1	15%
O=C(CC1C(=O)NCCN1Cc1ccccc1C(F)(F)F)NCCN1CCOCC1 (centres unmarked)	9.8%
COc1ccc(CN(C(=O)c2cc3ccccc3oc2=O)C2CCS(=O)(=O)C2)cc1 (centres unmarked)	-18.9%
CCCCNC(=O)CC1NCCNC1=O (centres unmarked)	22%
O=S(=O)(NC1=NCCCCC1)c1ccc(Cl)cc1Cl	-2.95%
Cc1cnc(C(=O)OC(C)C(=O)Nc2ccccc2-c2ccccc2)cn1 (centres unmarked)	-5.89%

SMILES	hERG current change (%, negative = inhibition) at 10uM
CCN(CC)CCCn1c2c(c(SCC(=O)N3CCc4ccccc43)nc1=O)CCC2	-78.6%
CC(=C/c1ccccc1)/C=N/n1c(-c2ccncc2)n[nH]c1=S	0.682%
CCc1cccc(CC)c1-n1c(SCC(=O)N2CCc3ccccc3C2)nnc1-c1cccnc1	-19.8%
Cc1cc(C)n(CCNS(=O)(=O)c2ccccc2)n1	15.6%
C=CCc1cccc(Cl)c1OCCCNC1CCCC1.O=C(O)C(=O)O	-30.3%
Cc1ccc(NC2c3ncccc3C(=O)N2Cc2cccs2)cc1C (centres unmarked)	-2.77%
CCOc1ccc(N(C)Cc2cc(=O)oc3ccc(OC)cc23)cc1	12.4%
CCOC(=O)c1cnn(CCOC(=O)C(C)(C)C)c1NC(=O)C(C)(C)C	12.8%
CS(=O)(=O)O.OC(c1cc(C(F)(F)F)nc2c(Cl)cc(Cl)cc12)C1CCCCN1 (centres unmarked)	-23.8%
Cc1ccc2nc(SCC(=O)Nc3ccc(F)cc3F)[nH]c2c1	7.57%
CCCOC(=O)Nc1cccc(C(C)=O)c1	7.32%
NC(=O)c1ccccc1O	20%
CC(=O)OC(C#CCN1CCOCC1)c1ccccc1 (centres unmarked)	-6.64%
O=S(=O)(CCN1CCOCC1)c1ccc(OC(F)(F)F)cc1	2.9%
CN(C)S(=O)(=O)c1ccc(Cl)c(NC(=O)COC(=O)CNC(=O)c2ccco2)c1	-4.39%
CSc1ccccc1NC(=O)CSc1nnc(CNC(=O)c2ccccc2F)n1C	11.2%
COc1ccc(CCNC(=O)CSc2ccc3nnc(CCNC(=O)c4ccc(C)cc4)n3n2)cc1OC	-5.17%
Cc1cc(Oc2ccc(C#N)cc2)nc(N2CCOCC2)n1	1.53%
CCN(CC(=O)Nc1c(F)cccc1F)C(=O)C1CCN(c2ncnc3sc(C)c(C)c23)CC1	-57.8%
COc1ccc(CNc2nc(NC(C)=O)nn2-c2ccccc2)cc1	9.65%
Cc1onc(-c2ccccc2Cl)c1C(=O)Nc1ccc(S(=O)(=O)Nc2nccs2)cc1	25.5%
COc1ccc(NC(=O)C2CCN(S(=O)(=O)c3c(C)noc3C)CC2)cc1OC	14.6%
COc1cc(OC)c(OC)cc1CNC(=O)c1ccc(S(=O)(=O)N2CC(C)OC(C)C2)cc1 (centres unmarked)	-11%

SMILES	hERG current change (%, negative = inhibition) at 10uM
O=c1cc2c(nn1Cc1ccccc1Cl)-c1ccccc1CC2	-12.5%
CCCCOc1ccc(-c2nnc(-c3ccncc3)o2)cc1	-10.2%
COc1ccc(OCC(=O)N2CCN(S(=O)(=O)c3ccccc3[N+](=O)[O-])CC2)cc1	-31.2%
Cc1ccc2c(c1)N(C(=O)CCC(=O)NCCCN(C)Cc1ccccc1)CCO2	-68.3%
O=C(CSc1nnc(-c2ccccc2)n1-c1ccc(Cl)cc1)N/N=C/c1ccco1	-55%
O=C(c1ccccc1)c1ccc(C(=O)N2CCN(c3ccccc3Cl)CC2)cc1	-13.3%
C=CCn1c(SCC(=O)Nc2ccc3c(c2)OCO3)nnc1-c1ccccc1O	-12.3%
CCOC(=O)N1CCN(C(=O)CSc2nnc(COc3ccccc3)o2)CC1	-11%
COc1cccc(CN(Cc2cccnc2)S(=O)(=O)c2ccc(-n3cnnn3)c(C)c2)c1OC	-25.5%
CCCC(CCC(=O)Nc1ccc(C(=O)OC)cc1)C(=O)O (centres unmarked)	-10.6%
Oc1ccc(NCc2ccc(OCc3ccccc3)cc2)cc1	15.8%
Cc1cccc(-n2c(-c3ccco3)n[nH]c2=S)c1	15.7%
CCC(C)C(=O)Nc1nnc(SCC(=O)NC2CCCC2)s1 (centres unmarked)	14.8%
CC1(C)OC2C(CO)OC(n3cnc4c(=S)nc[nH]c43)C2O1 (centres unmarked)	13.6%
COc1ccc(-n2c(SCC(=O)NC3CCCCC3)nc3ccsc3c2=O)cc1	-21%
CCN(C(=O)COC(=O)CNS(=O)(=O)c1ccccc1)c1ccccc1	13.1%
CCN(CC(=O)Nc1cc(Cl)ccc1C)C(=O)Cc1sc(C)nc1-c1ccc(F)cc1	-19.2%
COc1ccc(OC)c(C(=O)Cn2nnc3ccccc3c2=O)c1	9.14%
O=C(CCc1nc2ccccc2c(=O)[nH]1)N1CCN(c2ccc(F)cc2)CC1	-68%
CCOC(=O)c1nc2sc(C)c(C)c2c(=O)[nH]1	-2.21%
